According to PubChem BioAssay (NCATS):
Inconclusive results, whose numbers are uncertain, are shown with a selection of clear calls. For some of these results: No potency is given beside an inconclusive call; the fits are too rough. For some of these results: A note “side channel” means that the fit belongs to a control or component signal, not to the main read-out. The source made the active and inactive calls. Unless noted, calls come from the whole dose curve; as a rule, active = well fitted inhibition curve with a large enough effect; inconclusive = small, poorly fitted or top-dose-only effect; inactive = no such curve, though single readings can be large or run the other way.

Tested on: not listed separately
Assay: NFAT Signaling Pathway (AID 444; active = well fitted curve in either direction with a large enough effect, not every such curve was filed as active; inconclusive = small, poorly fitted or top-dose-only effect, or another doubt;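 note: carbachol stimulus at about its EC50 of 1 µM final; % is set by controls: 0 for no effect and ±100 for the full control effect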)
Details: Jurkat NFAT-bla M1, carbachol, beta-lactamase ratio, 5 h; at 7.69 µM (top of the series) unless noted
How it was run: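 Jurkat cells carrying an NFAT-driven β-lactamase reporter and co-transfected muscarinic M1 receptor were treated with compound plus carbachol (1 uM final, an EC50 level) for 5 h at 37 °C. CCF4 loading followed for 1 h at RT; 460/530 nm ratio gave %activity.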
Tags give direction and shape of the fitted curve or compound fluorescence and quenching.

Row | Structure (SMILES) | activity change, negative = inhibition
1 | COCCn1c(=O)c(-c2cc(F)cc(F)c2)nc2cnc(Nc3cccc(OC)c3)nc21 | inactive: -16.5%
2 | COc1cccc(Cn2c(=O)c(-c3ccc(Cl)cc3)nc3cnc(N4CCNCC4)nc32)c1 | inconclusive: 37.9% [activator]
3 | COCCn1c(=O)c(-c2cccs2)nc2cnc(Nc3ccccc3)nc21 | inconclusive: -55.3% [inhibitor]

Tested on: not listed separately
Assay: qHTS Assay for Identification of Small Molecule Agonists for Hypoxia Response Element Signaling Pathway (AID 914; active = well fitted activation curve with a large enough effect in the signal ratio, with a control signal flat, not every such curve was filed as active; inconclusive = small, poorly fitted or top-dose-only effect, or effect the other way, or a change in a side signal; the % refers to the signal ratio; note: potency is the fitted concentration of half-maximal effect; for activation: top concentration of the series differs between compounds; % of control where 0% means no effect)
Details: ME-180 (cervical carcinoma) HRE-bla reporter, beta-lactamase ratio, CoCl2, 17 h; activation: stronger effect = higher value
How it was run: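 HRE-bla ME-180 cells with beta-lactamase reporter under hypoxia response element, compounds with EC50 CoCl2 for 17 hours at 37 C. CCF4 substrate, 460nm/530nm emission ratio gave %Activity; AC50 from titration series.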

Row | Structure (SMILES) | activation | Potency
4 | COCCn1c(=O)c(-c2cc(F)cc(F)c2)nc2cnc(Nc3cccc(OC)c3)nc21 | inconclusive: 17.8% | 
5 | COc1cccc(Cn2c(=O)c(-c3ccc(Cl)cc3)nc3cnc(N4CCNCC4)nc32)c1 |  | inconclusive [fluorescent, side channel, single point]
6 | COCCn1c(=O)c(-c2cccs2)nc2cnc(Nc3ccccc3)nc21 |  | inconclusive [side channel, rising, single point]

Molecular target: Rap guanine nucleotide exchange factor 3 (Homo sapiens) (UniProt O95398)
UniProt O95398, sequence (O95398 whole entry, looked up): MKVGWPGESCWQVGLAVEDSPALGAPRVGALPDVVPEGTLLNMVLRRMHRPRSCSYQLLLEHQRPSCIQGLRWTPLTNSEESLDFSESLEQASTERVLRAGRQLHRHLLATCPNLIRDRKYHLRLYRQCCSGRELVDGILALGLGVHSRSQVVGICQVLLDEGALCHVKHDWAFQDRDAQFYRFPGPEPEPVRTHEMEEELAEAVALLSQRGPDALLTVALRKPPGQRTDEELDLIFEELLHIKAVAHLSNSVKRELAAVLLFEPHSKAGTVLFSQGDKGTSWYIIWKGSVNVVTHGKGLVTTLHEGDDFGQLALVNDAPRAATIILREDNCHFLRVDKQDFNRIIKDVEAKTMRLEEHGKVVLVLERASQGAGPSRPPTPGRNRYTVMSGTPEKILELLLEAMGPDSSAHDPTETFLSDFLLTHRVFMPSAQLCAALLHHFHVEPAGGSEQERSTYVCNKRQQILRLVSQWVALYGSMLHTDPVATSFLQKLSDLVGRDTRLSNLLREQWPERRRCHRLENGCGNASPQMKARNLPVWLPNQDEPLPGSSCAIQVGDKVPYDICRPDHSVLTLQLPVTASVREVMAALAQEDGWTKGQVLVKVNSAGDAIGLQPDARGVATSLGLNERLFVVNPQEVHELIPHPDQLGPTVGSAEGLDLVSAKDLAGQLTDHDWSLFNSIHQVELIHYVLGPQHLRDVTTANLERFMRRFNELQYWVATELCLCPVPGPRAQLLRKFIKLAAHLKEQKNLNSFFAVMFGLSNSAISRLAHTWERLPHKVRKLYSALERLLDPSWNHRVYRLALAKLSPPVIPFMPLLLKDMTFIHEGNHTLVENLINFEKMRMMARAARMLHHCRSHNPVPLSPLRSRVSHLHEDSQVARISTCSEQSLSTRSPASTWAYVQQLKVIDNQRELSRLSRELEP
Assay: Confirmatory qHTS for antagonist of cAMP-regulated guanine nucleotide exchange factor 3 (EPAC1) (AID 1645880); note: nearly all actives have a fitted effect of over 55% in size; note: potency is the fitted concentration of half-maximal effect;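 for activity, negative = inhibition: plate controls were DMSO only for no effect and full effect of the ATA control for full effect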
Details: EPAC1 Rap1B-BODIPY-GDP exchange, fluorescence; activity, negative = inhibition: at 115 µM (top of the series)
How it was run: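 Released BODIPY-GDP fluoresces less than Rap1-bound BODIPY-GDP; the signal is followed at 480/540 nm at 5-min intervals over 30 min, after 5 min at room temperature. Reactions contain 100 nM EPAC1, 250 nM RAP1B-BODIPY-GDP and 50 uM GDP; results are normalized to ATA and DMSO.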

Row | Structure (SMILES) | activity, negative = inhibition | Potency
7 | COCCn1c(=O)c(-c2cc(F)cc(F)c2)nc2cnc(Nc3cccc(OC)c3)nc21 | inactive: 31.6% | 
8 | COc1ccc(-c2csc3ncn(-c4ccc(C)cc4)c(=O)c23)cc1OC | inactive: -21.2% | 
9 | O=S(=O)(Nc1nccs1)c1ccc(NCc2cc(Br)cc(Br)c2O)cc1 |  | active: 56.2 µM
10 | OC(c1ccccc1)(c1nc(-c2cccc(C(F)(F)F)c2)cs1)C(F)(F)F (stereo unspecified) |  | inconclusive [inhibitor, full curve]
11 | Cc1cc(C(=O)c2ccc3ccccc3c2)c(C)o1 | inactive: -29.1% | 
12 | N[C@H](C(=O)O)C(O)C(O)C(O)CO (stereo partly specified) | inactive: -10.2% | 
13 | O=C(CSc1nc2ccccc2n1CCc1ccccc1)c1ccc(O)c(O)c1 |  | active: 6.01 µM
14 | CCCCC[C@H]1CN(Cc2ccccc2)C(=O)[C@@H]1CC(=O)NCc1ccc(OC)cc1 |  | inconclusive [inhibitor, partial curve]
15 | Cc1ccc(Cl)cc1NC(=O)Nc1cn(CC(C)C)c(=O)c2ccccc12 |  | inconclusive [inhibitor, single point]
16 | COc1cccc(Cn2c(=O)c(-c3ccc(Cl)cc3)nc3cnc(N4CCNCC4)nc32)c1 |  | inconclusive [inhibitor, partial curve]
17 | Cc1c(Cl)cccc1NC(=O)Nc1cccnc1 | inactive: -23.1% | 
18 | COCCn1c(=O)c(-c2cccs2)nc2cnc(Nc3ccccc3)nc21 | inactive: 135% | 
19 | CC[C@]12c3[nH]c4cc(-c5ccco5)ccc4c3CCN1C(=O)[C@@H](CC(=O)NCCCOC)C[C@@H]2C(=O)N1CCN(C(=O)C2CC2)CC1 | inactive: -21.4% | 
20 | N#Cc1c(-c2ccc(Cl)cc2)cc(-c2cccs2)nc1SCC(=O)O |  | inconclusive [inhibitor, partial curve]
21 | CC(=O)Nc1scc(-c2ccccc2)[n+]1-c1ccc(C)cc1 | inactive: -21% | 
22 | COc1cc2c(cc1OC)C1C(=O)c3ccc4c(c3OC1CO2)C=CC(C)(C)O4 (stereo unspecified) | inactive: -6.5% | 
23 | COc1cc(Cl)cc(/C=N\NC(=O)c2ccc3c(c2)OCO3)c1O |  | inconclusive [inhibitor, partial curve]
24 | Cc1ccc(S(=O)(=O)Nc2cc(C(=O)NCCN3CCCC3)ccc2N2CCCCC2)cc1 | inactive: -23.7% | 
25 | Cc1cc(C)c2c(CN3CCC(C)CC3)cc(=O)oc2c1 |  | inconclusive [inhibitor, partial curve, poor fit]
26 | COc1ccc(/C=N/NC(=O)c2ccccc2O)cc1Cn1nnc2ccccc21 |  | inconclusive [inhibitor, partial curve]

Row | Structure (SMILES) | activity, negative = inhibition | Potency
27 | Cc1cc(C)nc(SCC(=O)c2ccc(Cl)cc2)n1 | inactive: -16.6% | 
28 | CCOc1ccc(/C=C2\SC(=S)NC2=O)cc1OC |  | active: 15.1 µM
29 | CCCCn1c(N)c(N(CC(C)C)C(=O)C2CCN(C(=O)c3ccc(Cl)cc3)CC2)c(=O)[nH]c1=O | inactive: -4.78% | 
30 | CCC(=C(c1ccc(OC)cc1)c1ccc(OC)cc1)c1cn(CC(O)CN(CCO)CCO)c2ccccc12 (stereo unspecified) |  | inconclusive [inhibitor, partial curve]
31 | CCN1CCN(S(=O)(=O)c2ccc(Cl)c(C(=O)N(C)Cc3cccc(Cl)c3Cl)c2)CC1 |  | inconclusive [inhibitor, partial curve]
32 | CCOC(=O)c1c(NC(=O)/C=C/C(=O)O)sc(C)c1-c1ccc(C(C)(C)C)cc1 |  | active: 42.6 µM
33 | O=S(=O)(Nc1ccc(C(O)(C(F)(F)F)C(F)(F)F)cc1)c1ccc(Cl)c2nonc12 |  | active: 42.6 µM
34 | COc1ccc(N2C(=O)Cc3cc(OC)c(OC)cc3C2c2ccc(F)cc2)cc1 (stereo unspecified) |  | inconclusive [inhibitor, partial curve, poor fit]
35 | CN(Cc1ccc(Cl)cc1Cl)C(=O)CN1C(=O)NC2(CCCC2)C1=O | inactive: -12.2% | 
36 | CCOC(=O)c1c(C)[nH]c(C(=O)C(C)OC(=O)c2ccc(NC(=O)CC#N)cc2)c1C (stereo unspecified) |  | inconclusive [inhibitor, partial curve]
37 | NS(=O)(=O)c1ccc(N/N=C/c2ccccc2C(=O)O)c([N+](=O)[O-])c1 |  | inconclusive [inhibitor, partial curve]
38 | COC(=O)CC1(c2ccc(OC)cc2)C(=O)c2ccccc2C1=O |  | inconclusive [inhibitor, partial curve, poor fit]
39 | O=C(COC(=O)c1ccc(O)cc1O)Nc1nnc(-c2ccccc2)o1 | inactive: -22.6% | 
40 | CCOC(=O)CSc1nc2c(c(=O)n(C)c(=O)n2C)n1Cc1ccccc1F | inactive: -15.7% | 
41 | COc1cc(SC)ccc1C(=O)N(Cc1ccccc1)c1ccccc1 | inactive: -19.6% | 
42 | COc1ccccc1-c1nc2ccccc2n(CC(C)C)c1=O |  | inconclusive [inhibitor, partial curve, poor fit]
43 | CCN(CC)CCOC(=O)c1ccc(NC(=O)c2nn(-c3ccc(C)cc3)c(=O)c3c2c2ccccc2n3C)cc1 |  | active: 42.6 µM
44 | CNC(=O)CSc1nc2ccccc2c(=O)n1-c1cc(OC)ccc1OC | inactive: -15.4% | 
45 | CCCC(=O)OCCNc1cc(SCc2ccco2)c2nonc2c1[N+](=O)[O-] |  | inconclusive [inhibitor, partial curve]
46 | Cc1cccn2c(=O)cc(CSc3nnc(NC(=O)COc4ccccc4)s3)nc12 |  | active: 67.5 µM
